Measured values as given in publication PMC4336329 (PLoS ONE, 2015).
In all, about 310,000 compounds went through this assay and about 14,000 (4.5%) showed an effect of 50% or more. The effect is printed as a negative number. The list shows a part of the results.

What follows are molecules tested against human ether-à-go-go-related gene (hERG) potassium channel (human, UniProt Q12809) (assay: primary screen, population patch clamp on CHO cells stably expressing hERG).
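Further: peak tail current of the secondary pulse compared with the same well before compound.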

Sequence of human ether-à-go-go-related gene (hERG) potassium channel (Q12809 whole entry, looked up): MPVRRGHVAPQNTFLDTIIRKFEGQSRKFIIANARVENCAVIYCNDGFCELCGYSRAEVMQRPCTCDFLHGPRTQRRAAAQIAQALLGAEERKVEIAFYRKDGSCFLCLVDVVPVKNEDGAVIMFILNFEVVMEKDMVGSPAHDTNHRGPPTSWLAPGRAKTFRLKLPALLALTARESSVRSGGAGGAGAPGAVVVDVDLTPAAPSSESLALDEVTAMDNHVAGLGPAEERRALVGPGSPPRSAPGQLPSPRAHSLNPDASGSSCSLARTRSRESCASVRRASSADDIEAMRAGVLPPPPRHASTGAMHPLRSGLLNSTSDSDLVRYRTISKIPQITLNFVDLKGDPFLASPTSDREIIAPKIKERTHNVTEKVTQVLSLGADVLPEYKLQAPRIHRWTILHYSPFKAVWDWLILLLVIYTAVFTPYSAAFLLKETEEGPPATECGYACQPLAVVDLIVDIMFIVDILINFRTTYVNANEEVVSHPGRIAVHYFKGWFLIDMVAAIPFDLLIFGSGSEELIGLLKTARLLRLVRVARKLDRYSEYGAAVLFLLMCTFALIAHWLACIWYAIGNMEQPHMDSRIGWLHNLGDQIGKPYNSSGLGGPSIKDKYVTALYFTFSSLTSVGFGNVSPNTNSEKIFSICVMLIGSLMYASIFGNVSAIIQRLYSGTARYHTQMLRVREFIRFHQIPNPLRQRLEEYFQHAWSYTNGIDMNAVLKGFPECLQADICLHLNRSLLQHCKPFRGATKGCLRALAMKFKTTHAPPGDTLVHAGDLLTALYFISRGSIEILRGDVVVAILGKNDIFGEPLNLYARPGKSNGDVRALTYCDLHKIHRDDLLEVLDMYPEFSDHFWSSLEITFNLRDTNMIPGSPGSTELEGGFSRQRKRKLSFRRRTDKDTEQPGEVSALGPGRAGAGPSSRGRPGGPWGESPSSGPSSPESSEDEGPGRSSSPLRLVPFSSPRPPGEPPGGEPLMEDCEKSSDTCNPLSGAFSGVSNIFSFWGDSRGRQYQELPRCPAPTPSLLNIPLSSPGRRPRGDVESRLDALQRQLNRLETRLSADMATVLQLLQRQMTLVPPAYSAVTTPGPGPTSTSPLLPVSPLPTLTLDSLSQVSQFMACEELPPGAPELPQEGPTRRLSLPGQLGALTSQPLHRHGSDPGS

SMILES | hERG current change (%, negative = inhibition) at 10uM
CCCCn1nnnc1NCc1cc(Cl)c(OC)c(OC)c1 | -9.65%
COc1ccc(CC(=O)N2CCCc3ccccc32)cc1OC | 4.74%
CC(C)[C@H](N)C(=O)N1CCC(C(=O)N[C@@H](Cc2ccccc2)C(=O)NCc2ccc(F)cc2)CC1 | 15.7%
Cc1cccc2cc3c(N)c(C(=O)Nc4ccc(N5CCOCC5)cc4)sc3nc12 | 2.12%
CN(C)c1nc(F)c(F)c(S(=O)(=O)c2ccccc2)c1F | -8.33%
NS(=O)(=O)c1ccc(N=Nc2c(-c3ccccc3)[nH]n(-c3nc(-c4ccccc4)cs3)c2=O)cc1 | 2.31%
C[C@@H]1NC(=O)c2cc([N+](=O)[O-])cc(I)c2NCCCC[C@@H](C(N)=O)NC(=O)[C@H](CCC(=O)O)NC1=O | -9.34%
Cc1ccc(S(=O)(=O)N(C)Cc2ccc(C(=O)N/N=C/c3ccc(OC(F)F)cc3OC(F)F)cc2)cc1 | -3.1%
O=C(Nc1nnc(-c2cccs2)o1)c1cc(-c2ccccc2)nc2ccccc12 | -4.92%
Clc1nccnc1-c1ccccc1 | 2.2%
CC(=O)N1CCC(N(CCN2CCOCC2)C(=S)Nc2ccccc2C)CC1 | 7.98%
CC(C)(C)OC(=O)NCCCCCNC(=O)c1[nH]cnc1C(=O)Nc1ccc(Cl)cc1 | -6.26%
CC(=O)c1sc(-c2ccc(F)cc2)cc1NS(=O)(=O)c1ccc(C)cc1 | 7.93%
COC(=O)C1=C(O)/C(=C\c2ccc(OCC(=O)Nc3ccc(OC)cc3)cc2)N=C1C | 18.4%
Cc1ccc(C(c2nnnn2C(C)(C)C)N2CCC(C)CC2)cc1.Cl (stereo not shown) | -16.4%
Cc1nnc(N2CCOCC2)c2ccccc12 | 11.1%
COc1cc(F)c(C2=CC(=O)C[C@H](c3ccc4c(c3)OCO4)C2)cc1F | 16.1%
Cc1ccc(-n2c(=O)cc(N3CCc4ccccc4C3)[nH]c2=O)cc1 | -2.39%
O=C1CCCN1CCC1CCN(C2CC(=O)N(c3ccc(F)cc3)C2=O)CC1 (stereo not shown) | -1.11%
COc1cc(Nc2cc(C)nc3ncnn23)cc(OC)c1 | -8.29%
NC(=O)c1ccc(Br)c(S(=O)(=O)N2CCCCC2)c1 | -16.1%
CC(=O)C(Cc1ccccc1)NC(=O)CCl (stereo not shown) | 18.3%

SMILES | hERG current change (%, negative = inhibition) at 10uM
Cc1c(C(=O)NCc2nnc(-c3ccccc3)o2)oc2c(F)cccc12 | 1.28%
COc1cccc(C(=O)NCc2ccc3c(c2)OCO3)c1 | 4.82%
CNC(=O)Oc1ccc(C(=O)N2c3ccccc3NC(=O)C2C)cc1 (stereo not shown) | 8.73%
Cc1ccc(NC(=O)CNC(=O)c2ccco2)c(Cl)c1 | 1.11%
CCn1nc(C)c(CNC(=O)CC2C(=O)NCCN2CC(C)(C)C)c1C (stereo not shown) | 9.14%
CC(=O)c1cccc(NC(=O)NNC(=O)c2ccc3ccccc3c2)c1 | 2.69%
O=C(O)C1C2C=CC(C2)C1C(=O)NCCCn1ccnc1 (stereo not shown) | -17.7%
CCCc1ccc(Oc2cc(NN3CCCCC3)c([N+](=O)[O-])cc2[N+](=O)[O-])cc1 | -9.7%
CC1=C(C(=O)Nc2cccc([N+](=O)[O-])c2)C2(CCC(C)CC2)OC1=O (stereo not shown) | -2.84%
CCc1c(C)sc(NC(=O)Cn2nc(C(F)(F)F)c3c2CCCC3)c1C#N | -15.1%
Cc1cc(C)cc(N(CCC#N)C(=O)COC(=O)C2CCN(S(=O)(=O)c3ccc(C)c(C)c3)CC2)c1 | -8%
O=C(NCCN1CCOCC1)c1cc(Sc2ccccc2Cl)nc2ccccc12 | -27.1%
CC(=O)c1sc(NC(=O)C2(F)C(F)(F)C(F)(F)C(F)(F)C(F)(F)C2(F)F)nc1C | 1.32%
COc1ccc(NC(=O)CSc2nc3c(cc2C#N)CN(C)CC3)cc1 | -9.72%
CCOC(=O)c1c(C)[nH]c(C=Nc2ccc(OC)cc2)c1O | -11.3%
CCOC(=O)c1[nH]c2cc3c(cc2c1NC(=O)CN1CCC2(CC1)OCCO2)OCO3 | 4.19%
Cc1cccc(OCCn2c(S(=O)(=O)O)nc3ccccc32)c1 | 5.42%
COc1ccc(-c2[nH]ncc2CN2CCCC(C(=O)c3ccc(OC)cc3OC)C2)cc1 (stereo not shown) | -65%
C#CCOc1ccc(/C=N/NC(=O)c2cccnc2)cc1OCC | 3.22%
CCOc1ccc2nc(SCC(=O)N(CCOC)c3c(N)n(Cc4ccccc4)c(=O)[nH]c3=O)[nH]c2c1 | 6.86%
O=C(CCN1CCN(c2ccccc2F)CC1)Nc1cccc(F)c1 | -44.2%
O=C(O)c1ccccc1-c1ncc(-c2ccccc2)o1 | 6.94%

SMILES | hERG current change (%, negative = inhibition) at 10uM
COc1ccc(C(=O)Nn2c(C)nc3ccccc3c2=O)c(OC)c1 | -21.9%
CCOC(=O)c1ccc(NC(=O)COc2coc(CN3CCc4ccccc43)cc2=O)cc1 | 4.35%
CC(=O)Nc1ccc(S(=O)(=O)NC2=NCN(c3ccc([N+](=O)[O-])cc3)CN2)cc1 | 27.5%
Cc1ccccc1NS(=O)(=O)c1ccc2oc(=O)ccc2c1 | 6.07%
O=C(COc1ccc2c3c(c(=O)oc2c1)CCC3)N[C@@H](CSCc1ccccc1)C(=O)O | 7.39%
[O-][n+]1c2c(nc3c1-c1ccccc1C3O)CCCC2 (stereo not shown) | -2.12%
COc1cc(C(=O)Nc2cccc(-n3cnnn3)c2)cc(Cl)c1OC | -5.07%
Nn1c(COc2ccc(Cl)cc2)nc2ccccc2c1=O | -34.8%
COCCOCCn1cnc2ccccc21 | 14.9%
CCc1ccc(/C(C)=N\Nc2ccc([N+](=O)[O-])cc2)cc1 | -8.23%
CCS(=O)(=O)c1ncc(Cl)c(C(=O)Nc2ccccc2OC)n1 | 21.9%
CC(=O)Oc1ccc(C(=O)Nc2cccc(-c3nnc(-c4ccco4)o3)c2)cc1 | 0.775%
O=c1c2ccccc2nc2ccc(NCc3cccs3)nn12 | -18.9%
COc1ccc(/C=C2/C(=N)N3N=C(CC(=O)N4CCCC4)SC3=NC2=O)cc1OC | 23.2%
COc1cccc(-c2csc(N3CCN(C(=O)C4CCCCC4)CC3)n2)c1 | -6.39%
O=C1C(Cl)=C(N2CCCCCC2)C(=O)N1c1ccc(Br)cc1 | 1.35%
Cc1cc(C(=O)O)ccc1-n1c(C)cc(/C=C(/C#N)C(=O)Nc2ccccc2)c1C | 15.1%
COc1ccc(C2C(C(C)=O)=C(O)C(=O)N2c2ccc(Br)cn2)cc1 (stereo not shown) | -18.4%
CCCCNC(=O)/C(=C/c1ccco1)NC(=O)c1ccco1 | 11.9%
CCOc1ccc(-n2c(C)c(C(=O)OC)c3cc(O)ccc32)cc1 | 1.58%
COC(=O)c1cc(N=Nc2c(C)[nH]c3ccccc23)cc(C(=O)OC)c1 | 17.4%
CCOc1ccccc1CN1CCNC(=O)C1CC(=O)NCc1cc(C)n(C)n1 (stereo not shown) | 18.8%

SMILES | hERG current change (%, negative = inhibition) at 10uM
CCCCNC(=O)CCC(=O)Nc1ccc2nc(N3CCOCC3)cc(C)c2c1 | -3.09%
O=C1c2ccccc2C(=O)C1c1nccc2ccccc12 | 19.2%
CCOc1ccc(S(=O)(=O)N2CCCC(C(=O)NCc3ccco3)C2)cc1 (stereo not shown) | -4.45%
COc1ccc(/C(O)=C2/C(=O)C(=O)N(CCCN3CCOCC3)C2c2ccc(N(C)C)cc2)cc1 (stereo not shown) | 9.34%
COc1nc(C)nc(NC(=O)NS(=O)(=O)c2ccccc2Cl)n1 | 9.96%
Cc1ccc(-c2nc3ccccc3o2)cc1NC(=S)NC(=O)c1cc2ccccc2o1 | 4.08%
CSc1ccccc1NC(=O)COC(=O)Cn1cc(C(F)(F)F)ccc1=O | 4.23%
CN(C)S(=O)(=O)c1cccc(NC(=S)N(CCC#N)Cc2cccnc2)c1 | -7.37%
O=C(/C=C/c1ccco1)N(Cc1cccc(Br)c1)C1CCS(=O)(=O)C1 (stereo not shown) | -46.3%
CC(c1ccccc1)N1C(=O)c2cccnc2C1=O (stereo not shown) | 15.6%
COCC(=O)Nc1nnc(-c2ccc(C(C)(C)C)cc2)s1 | -19.2%
CCCCN1CC(O)=C(c2nc(-c3ccc(Br)cc3)cs2)C1=N | 4.74%
Cc1cccc(C(=O)NC(C(=O)Nc2nc(-c3ccccn3)cs2)C(C)C)c1 (stereo not shown) | 23.5%
CCOC(=O)c1nn(-c2cccc(OC)c2)c2nc(Nc3ccccc3)cc(=O)n12 | -5.64%
CN1C(C(=O)NCc2ccccc2)CC2Cn3c(nc4ccccc43)C21 (stereo not shown) | -0.69%
O=C(NS(=O)(=O)Nc1ccc(Cl)cc1)c1c[nH]c2ccccc12 | 23.2%
C=CCc1c(C)nc(SC)nc1Nc1ccc(C)cc1 | -14.3%
CCOC(=O)c1c(SCC(=O)Nc2nc(C)cs2)nc(=O)[nH]c1C | 13.3%
O=C(CN1CCN(C/C=C/c2ccccc2)CC1)Nc1ccccc1C(=O)NC1CC1 | -80.5%
